Test results: article PMC6919601, “Identification of Plasmodium dipeptidyl aminopeptidase allosteric inhibitors by high throughput screening” (PLoS ONE, 2019)
Where “and” joins values, the source holds several entries; their conditions need not be identical. Equal values may be shown once. In all, about 110,000 compounds went through this assay and about 230 (0.21%) showed an effect of 50% or more. This is one part of the list.

biological target: DPAP1 (Plasmodium falciparum, UniProt Q8IIJ9); assay: primary screen, percent inhibition; read by cleavage of a fluorogenic dipeptide substrate; higher = more effect of the substance; set-up: species or system P. falciparum D10 trophozoite lysates; single well
Sequence (Q8IIJ9 whole entry, looked up): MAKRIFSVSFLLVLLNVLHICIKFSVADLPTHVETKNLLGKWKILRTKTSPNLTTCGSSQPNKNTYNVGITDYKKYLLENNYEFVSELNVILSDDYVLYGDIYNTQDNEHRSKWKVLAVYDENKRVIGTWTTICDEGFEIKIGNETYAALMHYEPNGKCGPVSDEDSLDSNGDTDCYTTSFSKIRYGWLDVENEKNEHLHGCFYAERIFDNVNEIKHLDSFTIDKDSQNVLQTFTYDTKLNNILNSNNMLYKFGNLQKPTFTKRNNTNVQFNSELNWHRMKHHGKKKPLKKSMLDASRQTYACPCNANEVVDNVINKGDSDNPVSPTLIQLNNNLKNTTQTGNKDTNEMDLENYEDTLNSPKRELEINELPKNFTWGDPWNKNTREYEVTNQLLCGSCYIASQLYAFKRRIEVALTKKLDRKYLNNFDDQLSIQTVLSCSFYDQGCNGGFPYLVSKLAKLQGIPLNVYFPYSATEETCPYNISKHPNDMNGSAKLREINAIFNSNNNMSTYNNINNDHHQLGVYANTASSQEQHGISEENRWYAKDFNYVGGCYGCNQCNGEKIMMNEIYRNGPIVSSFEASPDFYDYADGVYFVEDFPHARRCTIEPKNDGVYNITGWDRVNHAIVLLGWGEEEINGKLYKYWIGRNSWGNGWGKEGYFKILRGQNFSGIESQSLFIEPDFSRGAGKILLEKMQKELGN
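Note: 30 min substrate incubation versus DMSO and 10 µM JCP410 controls.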

Row | Compound | % Inhibition @ 10 uM
1 | COc1ccc(-c2csc3ncn(C(C)C(=O)O)c(=O)c23)cc1OC (stereo not shown) | -2.98%
2 | COc1cc(OC)cc(C(=O)N2CCN(Cc3ccc(F)cc3)CC2)c1 | 0.361%
3 | O=C(NC1CC1)c1ccc(COc2c(F)c(F)cc(F)c2F)o1 | -5.07%
4 | CC(C)c1ccc(/C=C/c2cc(=O)n3ccsc3n2)cc1 | -2.23%
5 | Cc1c(C(c2cc3c(cc2Cl)OCO3)c2c(C)n(C)n(-c3ccccc3)c2=O)c(=O)n(-c2ccccc2)n1C | -1.5%
6 | CC1=C(C(=O)Nc2cccc(C)c2)C(c2ccc(O)cc2)NC(S)=N1 (stereo not shown) | -5.94%
7 | CC(C)=C1C2C=CC1C1C(=O)N(c3cc(Cl)ccn3)C(=O)C21 (stereo not shown) | 0.317%
8 | O=[N+]([O-])c1ccc(N2CCSCC2)nc1 | 0.162%
9 | CCOc1ccc(C(=O)NCc2ccccn2)cc1 | -1.44%
10 | COc1ccc(OC)c(-c2cc(C(=O)NCc3ccc(F)cc3)no2)c1 | -2.55%
11 | COc1ccc(S(=O)(=O)N(C)CC(=O)NCc2cccnc2)cc1 | 2.78%
12 | Cc1ccc(-c2ccc(=O)n(CC(=O)N3CC(C)CC(C)C3)n2)cc1 (stereo not shown) | -2.99%
13 | Cc1cccc(-c2c3c(=O)n(C)c(=O)n(C)c3cn2-c2cccc(C#N)c2)c1 | 3.62%
14 | CCc1ccc(N2C(=O)C(Cl)=C(N3CCOCC3)C2=O)cc1 | -4.76%
15 | CN(C)c1ccc(NC(=O)Cn2cnc3c2c(=O)n(C)c(=O)n3C)cc1 | -8.33%
16 | CNC(=O)c1c(NC(=O)c2ccco2)sc2c1CCC(C(C)(C)C)C2 (stereo not shown) | 0.777%
17 | COc1ccc(CNCCc2c(C)[nH]c3ccc(OC)cc23)c(F)c1 | 1.64%
18 | C=Cc1ccc(Cn2c(C(=O)O)c(CNC3CCCCCC3)c3ccc(C)cc32)cc1 | -0.356%
19 | Cc1ccc(C(=O)C2=C(O)C(=O)N(CCCn3ccnc3)C2c2ccc(C)cc2)cc1 (stereo not shown) | -3.45%
20 | Cc1ccnc(N2C(=O)c3ccc(Oc4ccc5c(c4)C(=O)N(c4cc(C)ccn4)C5=O)cc3C2=O)c1 | 0.997%
21 | O=S(=O)(c1ccc(Br)cc1)N1CCSC1c1ccc(Cl)cc1 (stereo not shown) | -1.82%
22 | CN(Cc1ccccc1)C(=O)c1cc(-c2ccc(Cl)cc2)[nH]n1 | 6.73%

Row | Compound | % Inhibition @ 10 uM
23 | CC1CCN(S(=O)(=O)c2ccc(Oc3ccc(S(=O)(=O)N4CCC(C)CC4)cc3)cc2)CC1 | 3.66%
24 | O=C(ON1C(=O)c2cccc3cccc(c23)C1=O)c1ccccc1F | -6.55%
25 | CN(Cc1ccccc1)C(=O)CN1CCN(Cc2ccc(Cl)cc2)C1=O | -0.704%
26 | CCCC(=O)NC(c1ccc(C)cc1)c1cc(Cl)c2cccnc2c1O (stereo not shown) | 3.6%
27 | COc1cccc(OCCCN2CCCC2)c1 | 3%
28 | CC(Sc1nc(-c2ccccc2)cc(C(F)(F)F)n1)C(=O)Nc1cccnc1 (stereo not shown) | -3.92%
29 | CC(C)(C)c1ccc(/C=C/C(=O)N2CCOCC2)cc1 | -1.33%
30 | CCCCN(C)C(C)CCc1ccc(O)cc1 (stereo not shown) | -4.14%
31 | CCN1CCN(C(=O)c2c(-c3ccccc3)noc2C)CC1 | 6.82%
32 | CCOC(=O)C1=C(N)Oc2ccc3ccccc3c2C1c1cccnc1 (stereo not shown) | 1.26%
33 | Cc1cc(C)c(-c2c(O)c3c(n(C)c2=O)CC(C)(C)CC3=O)c(C)c1 | 0.674%
34 | O=C1CC(c2ccccc2Cl)NC(NC(=O)c2cccnc2)=N1 (stereo not shown) | -6.87%
35 | CN1C(=O)CC2CC1(C)Oc1ccccc12 (stereo not shown) | 6.23%
36 | CCOC(=O)c1cc2c(OC)ccc(OC)c2n1CC(=O)c1ccccc1 | 3.24%
37 | O=C(NCc1cccnc1)c1ccccc1Br | 0.467%
38 | O=C(O)CCCNc1ncnc2c1ncn2C1OC(CO)C(O)C1O (stereo not shown) | 1.21%
39 | Cn1nnnc1SCCNCC#Cc1ccccc1 | -1.71%
40 | O=C(CSc1nnc(C2COc3ccccc3O2)o1)N1CCOCC1 (stereo not shown) | 1.3%
41 | COc1ccc(-c2nc(CS(=O)(=O)CC(=O)NCc3cccnc3)c(C)o2)cc1 | -5.58%
42 | Cc1nc2ccccc2n1CC(=O)NCCCN1CCOCC1 | 3.91%
43 | Brc1ccccc1OCCOCCN1CCCC1 | -3.74%
44 | O=C(NCc1ccc(F)cc1)c1ccc(CNc2c(N3CCOCC3)c(=O)c2=O)cc1 | 2.76%

Row | Compound | % Inhibition @ 10 uM
45 | O=C(/C=C/c1ccccc1)NCc1ccc(Cl)cc1 | 0.0792%
46 | COc1cc(-c2nc3ccccn3c2/N=C/c2cccc(OC)c2O)ccc1O | 13.2%
47 | O=C(NCC1CCCO1)c1nnc(O)c2ccccc12 (stereo not shown) | 2.29%
48 | COc1cccc(C2CC(=O)NC(SC)=C2C#N)c1 (stereo not shown) | 4.38%
49 | N#CCNC(=O)[C@H](Cc1c(F)cc(Br)cc1F)NC(=O)OCc1ccccc1 | -6.56%
50 | Cc1cc(C)c(C(N)=O)c(Nc2ccc3c(c2)OCCO3)n1 | 0.475%
51 | CCCCN(CC)CCNC(=O)Cn1ncc2c3ccccc3n(CCC)c2c1=O | -0.48%
52 | Cc1cccc(-n2c(-c3ccco3)nc3ccccc3c2=O)n1 | -3.54%
53 | CC1CCCC(NC(=O)c2ccc(CS(=O)(=O)Cc3ccc(Cl)cc3)o2)C1C (stereo not shown) | 0.387%
54 | COc1ccc2c(CNCC(C)c3ccccc3)c(C(=O)O)n(Cc3ccccc3C)c2c1 (stereo not shown) | -8.85%
55 | c1ccc(C2(CNc3ccccn3)CCCC2)cc1 | 2.78% and -2.36%
56 | COc1ccc(-c2nnc(SCC(N)=O)n2C)cc1OC | -3.1%
57 | C(#Cc1ccc(C#CCN2CCCCC2)cc1)CN1CCCCC1 | -2.44%
58 | O=C(Nc1cccnc1)C1CCCN(S(=O)(=O)c2ccc3nc(O)ccc3c2)C1 (stereo not shown) | -4.06%
59 | CC(=O)Nc1sc2c(c1C(c1ccc(OC(F)F)cc1)N1CCOCC1)CCCC2 (stereo not shown) | 2.45%
60 | Cc1nc2c(c(C)c1CCC(=O)N1CCC(N3CCCCC3)CC1)c(=O)n(C)c(=O)n2C | -6.91%
61 | CCCC(Nc1ccccc1)N1C(=O)CCC1=O (stereo not shown) | 5.24%
62 | c1ccc(CNc2nnnc3c2sc2nc(N4CCOCC4)c4c(c23)CCCC4)cc1 | -1.11%
63 | CCOC(=O)c1conc1-c1sccc1C | -3.86%
64 | CC(C)/C=C1\CC/C(=C\c2ccccn2)C1=O | 6.89%
